Where “and” joins values, the source holds several entries; their conditions need not be identical. Equal values may be shown once. The list shows a part of the results. These are further read-outs of the screen, such as a control signal, another cell line or another target. No call is given for them.
Key:
Experiment in all cases: Primary Screen for Target Class Profiling of Small Molecule Inhibitors of Methyltransferases
[1] = target: Glycine N-methyltransferase (Homo sapiens) (UniProt Q14749); settings: purified enzyme, MTase-Glo SAH luminescence; measured here: GNMT inhibition; at 40 µM; stronger effect = lower value
How it was run: (§1)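 Each enzyme was reacted with SAM and its substrate, with compounds tested once at 40 uM; SAH formed was read by MTase-Glo luminescence.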

[2] = target: Guanidinoacetate N-methyltransferase (Homo sapiens) (UniProt Q14353); settings: purified enzyme, MTase-Glo SAH luminescence; measured here: GAMT inhibition; at 40 µM; stronger effect = lower value
How it was run: as §1

[3] = target: Histamine N-methyltransferase (Homo sapiens) (UniProt P50135); settings: purified enzyme, MTase-Glo SAH luminescence; measured here: HNMT inhibition; at 40 µM; stronger effect = lower value
How it was run: as §1

[4] = target: Nicotinamide N-methyltransferase (Homo sapiens) (UniProt P40261); settings: purified enzyme, MTase-Glo SAH luminescence; measured here: NNMT inhibition; at 40 µM; stronger effect = lower value
How it was run: as §1

[5] = target: Phenylethanolamine N-methyltransferase (Homo sapiens) (UniProt P11086); settings: purified enzyme, MTase-Glo SAH luminescence; measured here: PNMT inhibition; at 40 µM; stronger effect = lower value
How it was run: as §1
On the % scale 0 is the no-effect control and ±100 the full control effect.

Structure (SMILES) | activity change, negative = inhibition [1] | activity change, negative = inhibition [2] | activity change, negative = inhibition [3] | activity change, negative = inhibition [4] | activity change, negative = inhibition [5]
O=C(Cc1ccc(F)cc1)NC1CCN(c2cc(-c3ccccc3)[nH]n2)CC1 | -5.17% | -18.5% | -3.32% | -16.8% | -5.93%
CCCn1c(=O)c2ccc(C(=O)NC(C)C)cc2n2c(SCC(=O)Nc3ccccc3OC)nnc12 | 1.51% | 2.28% | 6.51% | -3.81% | 0.103%
CC(=O)Nc1c2n(c3ccc(F)cc13)CC(C)(C(=O)NC1CCCC1)N(c1ccc(C)cc1C)C2=O (stereo unspecified) | -0.477% | 0.991% | 2.25% | 0.74% | 0.329%
O=C1Nc2ccccc2-c2nc3ccccc3c(=O)n2-c2c(O)cccc21 | -1.83% | -5.79% | 2.67% | -12.2% | -8.94%
CCCN1C(=O)c2c(C(=O)NCc3ccc(OC)cc3)ncn2CC1(C)C(=O)NC1CCCC1 (stereo unspecified) | 3.67% | 0.743% | 7.27% | 1.16% | 11.8%
COc1cccc(-c2ccc(C(=O)NCCNC(=O)c3ccccc3OC)cc2)c1 | -11.4% | 0.323% | -2.19% | -8.75% | -0.887%
COc1ccc(-c2cc3n(n2)CC(C)(C(=O)NCc2ccccc2)N(C2CC2)C3=O)cc1 (stereo unspecified) | -5.66% | 0% | 0.428% | 1.18% | -1.96%
COc1ccc2cc3n(c2c1)CC(C)(C(=O)NCC1CCCO1)N(Cc1cccs1)C3=O (stereo unspecified) | 9.09% | 2.19% | 6.42% | 13.1% | 6.27%
CC1CCCC(NC(=O)C2c3cccn3CC(=O)N2c2ccc(Cl)cc2)C1C (stereo unspecified) | 1.21% | 0.643% | -2.94% | -1.04% | -4.65%
COc1ccc2cc3n(c2c1)CC(C)(C(=O)NC1CCCCC1)N(Cc1ccccn1)C3=O (stereo unspecified) | -2.02% | 1.42% | -0.38% | -15.7% | -2.7%
CCCC1c2ccc(C)n2CCN1C(=O)Nc1ccc(CC(=O)OCC)cc1 (stereo unspecified) | -1.13% | 6.32% | -11.9% | 2.55% | -6.75%
CCC(C)NC(=O)c1ccc2c(=O)n(C)c3nn(CC(=O)NCc4ccccc4Cl)c(=O)n3c2c1 (stereo unspecified) | 1.42% | 0% | 2.73% | -9.41% | -1.4%
O=C(/C=C/c1ccc(O)cc1)OC[C@H]1O[C@H](O[C@@]2(CO)O[C@@H](CO)[C@H](O)[C@H]2O)[C@H](O)[C@@H](O)[C@@H]1O | 3.13% | 1.63% | 9.6% | -12.8% | 3.21%
COC(=O)CC(O)CC(O)/C=C/c1c(C)ccc2c1C(O)CC(C)C2 (stereo unspecified) | 0.21% | 7.28% | 10.9% | -4.82% | 3.71%
CCOC(=O)CNC(=O)C1(C)Cn2c(ccc2-c2ccco2)C(=O)N1Cc1ccc(OC)cc1 (stereo unspecified) | -0.8% | 1.85% | 4.52% | 5.66% | 0.89%
COc1cc(C(=O)N2CCC(Cc3nc(C(C)C)no3)CC2)cc(OC)c1OC | -1.16% | 0.774% | -0.606% | -7.35% | -1%
O=C(CCc1nnc2n(Cc3ccc(Cl)cc3)c(=O)c3ccccc3n12)NC1CCCCC1 | 3.27% | 2.88% | 11.7% | 10.6% | 3.32%
COc1ccc(C(=O)Nc2sc3c(c2C(N)=O)CCCC3)cc1OC |  | 11.3% |  | -7.93% | 7.31%
CCOC(=O)c1cc2n(n1)CC(C)(C(=O)NC1CCCCC1)N(Cc1ccc(OC(C)C)cc1)C2=O (stereo unspecified) | 2.99% | 0% | -0.661% | -2.71% | 4.04%
COc1ccc(NC(=O)C(C)Oc2ccc3c(-c4ccccc4)cc(=O)oc3c2)cc1 (stereo unspecified) | 0.954% | 0% | 1.84% | 1.83% | -1.29%

Structure (SMILES) | activity change, negative = inhibition [1] | activity change, negative = inhibition [2] | activity change, negative = inhibition [3] | activity change, negative = inhibition [4] | activity change, negative = inhibition [5]
CC(=O)Nc1c2n(c3ccc(F)cc13)CC(C)(C(=O)NC1CCCCC1)N(Cc1ccccc1)C2=O (stereo unspecified) | -3.01% | 2.6% | 3.67% | -3.95% | -2.07%
CNC(=O)N1CCC(C2CCN(C(=O)c3cccs3)C2)CC1 (stereo unspecified) | -1.94% | -4.48% | 1.17% | -4.42% | -0.448%
CCCN1C(=O)c2c(C(=O)NCc3ccc(C)o3)ncn2CC1(C)C(=O)NCCC(C)C (stereo unspecified) | 0.143% | 0% | 0.759% | -0.003% | 0.64%
O=C1Nc2ccccc2CC12CCCN2Cc1ccccc1 (stereo unspecified) | -4.89% | -0.07% | -2.51% | -3.45% | -1.19%
N[C@@H](Cn1ccc(=O)c(O)c1)C(=O)O | 3.22% and 3.86% | -1.5% and 13.6% | -0.931% and 5.39% | -12.3% and 0.303% | -7.05% and 12.2%
CN1CCN(CCCNC(=O)c2cc3n(n2)CC(C)(C(=O)NCc2ccccc2)N(C)C3=O)CC1 (stereo unspecified) | 1.86% | 4.19% | 7.17% | 6.13% | 4.37%
OC(COc1ccccc1CNCC1CCOCC1)CN1CCSCC1 (stereo unspecified) | -3.13% | -4.59% | -4.03% | -4.44% | 0.471%
COc1cc(O)c2c(=O)c(O)c(-c3ccc(O)c(O)c3)oc2c1 |  | 2.75% |  | -10.8% | -5.2%
Cc1ccc(Cn2c(=O)c3ccccc3n3c(CCC(=O)NCCC4=CCCCC4)nnc23)cc1 | -6.1% | 1.06% | 4.15% | 4.03% | -1.59%
O=C(CCc1nnc2n(Cc3ccc(F)cc3)c(=O)c3ccccc3n12)N1CCC(N2CCCCC2)CC1 | 3.55% | 0% | -50.9% | 8.6% | 1%
CC(N)(Cc1ccc(O)c(O)c1)C(=O)O (stereo unspecified) | -51.3% | 6.84% | -2.67% | -4.62% | 5.69%
CCN1C(=O)c2cc(C(=O)Nc3ccc(C)cc3C)nn2CC1(C)C(=O)NC1CCCC1 (stereo unspecified) | 2.02% | 0.714% | -5.29% | 2.17% | 1.12%
CCOc1ccc(CN2C(=O)c3cc(-c4ccccc4)nn3CC2(C)C(=O)NCc2ccccc2OC)cc1 (stereo unspecified) | 9.57% | 2.97% | 7.18% | 8.41% | 3.2%
COCCN1CC(c2n[nH]c(C3CCOCC3)n2)CCC1=O (stereo unspecified) | -2.86% | 3.05% | -0.716% | -6.77% | -5.64%
O=C(CCn1ccc2cc(S(=O)(=O)N3CCCC3)ccc21)NCc1cccc(F)c1 | 7.76% | 0.535% | 8.27% | 12.4% | 6.49%
CCOC(=O)C1(Cc2ccccc2F)CCCN(C(=O)c2ccc3c(c2)OCCO3)C1 (stereo unspecified) | -6.74% | -2.92% | -2.62% | -11.1% | -1.67%
Cn1cccc1CN1CCC2(CC1)COc1ccccc1[S+](=O)([O-])N2 | -8.91% | -7.18% | -7.51% | -7.85% | -14.5%
COCCCN1CC2(CCC1=O)CCN(C(=O)Nc1ccccc1F)CC2 | -5.92% | -4.99% | -1.21% | -11.4% | -12.9%
CC1=C(CCC(C)CC(=O)O)[C@@]2(C)CCCC(C)(C)C2CC1=O (stereo partly specified) | -1.88% | -1.12% | 6.99% | -16.1% | -7.76%

From PubChem BioAssay AID1745853 (National Center for Advancing Translational Sciences (NCATS), 2022)
